From PubChem BioAssay AID504832 (National Center for Advancing Translational Sciences (NCATS), 2011)
In all, about 310,000 compounds went through this assay and about 18,000 (5.8%) were called active. The shares of active, inactive and inconclusive entries below differ from those in the screen. Calls come from the whole dose curve; as a rule, active = well fitted inhibition curve with a large enough effect; inconclusive = small, poorly fitted or top-dose-only effect, or another doubt; inactive = no such curve, though single readings can be large or run the other way. Potencies of inconclusive entries are left out as doubtful fits.

Test: Primary qHTS for delayed death inhibitors of the malarial parasite plastid, 48 hour incubation
Conditions: P. falciparum luciferase growth in erythrocytes; series mostly up to 28.7 µM; activity change, negative = inhibition: at the top concentration
How it was run: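 Compounds are pin-transferred into medium, infected erythrocytes (2% hematocrit, 0.1% parasitemia final) are added, and plates sit one parasite generation at 37 C in 5% CO2. Detection reagent is then added and luminescence measured.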
% is set by controls: 0 for no effect and ±100 for the full control effect; potency is the fitted concentration of half-maximal effect; tags give direction and shape of the fitted curve.

Q: Which Potency does the source give for Cc1ccc(S(=O)(=O)N2CCC(C(=O)NCCC3=CCCCC3)CC2)cc1C here?
A: Its Potency is inconclusive [inhibitor, single point].

Q: With COc1ccc(-c2nn(-c3ccccc3)cc2C(=O)NCC(c2cccs2)N2CCOCC2)cc1 (configuration not stated) as the compound, how does the Potency read?
A: The Potency was active: 13.1 µM.

Q: Which Potency does the source give for C/C(=N\NC(=O)c1ccc(F)cc1)c1ccccn1 here?
A: The Potency was inconclusive [inhibitor, full curve, poor fit].

Q: For Cc1ccc(S(=O)(=O)N2CCN(CC(=O)Nc3ccc4c(c3)CCC4)CC2)cc1C, which Potency is on record?
A: The Potency was inconclusive [inhibitor, single point].

Q: Which Potency does the source give for COCCNC(=O)/C(C#N)=C/c1c(N2CCCCCC2)nc2ccccn2c1=O here?
A: The Potency was inconclusive [inhibitor, partial curve, poor fit].

Q: Which Potency does the source give for O=S(=O)(Nc1nc2ccccc2nc1Nc1cccc(S(=O)(=O)N2CCCCC2)c1)c1ccccc1 here?
A: The Potency was active: 8.28 µM.

Q: With CCOc1ccc(NC(=O)CN(C)C(=O)CC2CC3CCC2C3)cc1OCC (configuration not stated) as the compound, how does the Potency read?
A: Its Potency is inconclusive [inhibitor, single point].

Q: Which Potency does the source give for COc1ccc(/C=N/NC(=S)N[C@H]2CC3CCC2C3)cc1 (some centres not stated) here?
A: Its Potency is active: 4.15 µM.

Q: For CCN1CCN(Cc2c(O)ccc3c(=O)c(-c4ccc(OC)c(OC)c4)c(C(F)(F)F)oc23)CC1, which Potency is on record?
A: The Potency was active: 7.38 µM.

Q: Which “activity change, negative = inhibition” value does the source give for CCOc1ccccc1OCC(=O)Nc1ccc2[nH]c(=O)[nH]c2c1 here?
A: The value was inactive: 13.9%.

Q: With CN1C(=O)C(CC(=O)NCCc2ccccc2)N(NC(=O)c2ccc(Cl)cc2)C1=S (configuration not stated) as the compound, how does the Potency read?
A: The Potency was inconclusive [inhibitor, partial curve, poor fit].

Q: With O=C(Nc1ccc(S(=O)(=O)N2CCCCC2)cc1)C1CCN(C(=O)c2ccco2)CC1 as the compound, how does the Potency read?
A: The Potency was inconclusive [inhibitor, partial curve].

Q: With COC(=O)C1=C(C)NC2=C(C(=O)CCC2)C1c1coc2ccccc2c1=O (configuration not stated) as the compound, how does the Potency read?
A: Its Potency is inconclusive [inhibitor, partial curve, poor fit].

Q: Which “activity change, negative = inhibition” value does the source give for O=C(/C=C/c1ccc(Cl)c([N+](=O)[O-])c1)Nc1ccc(N2CCCC2)cc1 here?
A: Its value is inactive: -24%.

Q: Which Potency does the source give for O=C(OCc1ccc(-c2ccccc2)cc1)c1cccc(O)c1 here?
A: The Potency was inconclusive [inhibitor, partial curve, poor fit].

Q: Which Potency does the source give for COc1cccc(C(=O)Nc2c3c(nn2-c2ccc([N+](=O)[O-])cc2)CS(=O)(=O)C3)c1 here?
A: Its Potency is inconclusive [inhibitor, single point].

Q: Which Potency does the source give for Cc1onc(-c2ccccc2Cl)c1C(=O)Nc1cccc(S(=O)(=O)NC2=NCCC2)c1 here?
A: The Potency was inconclusive [inhibitor, single point].
